Experimental data taken from paper PMC9663306.
Results are given in words; binding and its absence hold for the method and conditions named. In cells and extracts the contact can be indirect. Sequences can lack the tags named with a protein.

Chains of the proteins cited; added tags and fusions are not shown.
UniProt Q8CJ61: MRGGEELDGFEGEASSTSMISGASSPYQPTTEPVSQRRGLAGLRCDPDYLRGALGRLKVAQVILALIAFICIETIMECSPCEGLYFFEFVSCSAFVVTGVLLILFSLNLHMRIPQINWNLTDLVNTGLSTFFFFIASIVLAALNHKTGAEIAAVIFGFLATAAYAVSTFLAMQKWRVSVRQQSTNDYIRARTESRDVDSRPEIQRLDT

Legend:
Assay in all cases: co-IP; anti-FLAG M2 agarose IP from 1% DDM lysates of ST2 cells retrovirally transduced with an SF-tagged receptor, immunoblot for endogenous proteins; cells unstimulated (SF-IL-17RC also after IL-17A 500 ng/ml for 15 min, unchanged)
[1] = target: T1, SF-IL-17RD (murine IL-17RD with C-terminal 2xStrep-3xFlag tag) (mouse) (UniProt Q8JZL1)
T1 sequence: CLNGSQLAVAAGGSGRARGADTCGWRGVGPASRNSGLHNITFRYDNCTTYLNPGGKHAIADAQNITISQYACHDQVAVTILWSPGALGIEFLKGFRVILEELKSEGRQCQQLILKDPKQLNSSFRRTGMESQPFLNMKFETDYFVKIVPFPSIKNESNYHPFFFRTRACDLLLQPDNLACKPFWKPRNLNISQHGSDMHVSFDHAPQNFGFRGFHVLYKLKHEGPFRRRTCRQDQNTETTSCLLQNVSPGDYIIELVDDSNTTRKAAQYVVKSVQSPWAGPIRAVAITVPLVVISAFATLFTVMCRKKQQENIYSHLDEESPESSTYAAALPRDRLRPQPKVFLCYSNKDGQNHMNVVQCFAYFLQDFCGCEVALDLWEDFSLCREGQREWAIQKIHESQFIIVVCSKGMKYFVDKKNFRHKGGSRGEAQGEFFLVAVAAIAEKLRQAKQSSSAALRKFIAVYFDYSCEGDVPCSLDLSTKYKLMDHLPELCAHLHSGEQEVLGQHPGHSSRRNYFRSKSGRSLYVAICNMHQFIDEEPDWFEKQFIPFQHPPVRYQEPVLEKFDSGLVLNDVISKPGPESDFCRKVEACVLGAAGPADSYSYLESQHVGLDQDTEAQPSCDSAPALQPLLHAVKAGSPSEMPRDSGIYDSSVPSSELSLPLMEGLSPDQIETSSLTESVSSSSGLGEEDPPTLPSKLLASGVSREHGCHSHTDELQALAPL

[2] = target: T2, SF-IL-17RE (murine IL-17RE with C-terminal 2xStrep-3xFlag tag) (mouse) (UniProt Q8BH06)
T2 sequence: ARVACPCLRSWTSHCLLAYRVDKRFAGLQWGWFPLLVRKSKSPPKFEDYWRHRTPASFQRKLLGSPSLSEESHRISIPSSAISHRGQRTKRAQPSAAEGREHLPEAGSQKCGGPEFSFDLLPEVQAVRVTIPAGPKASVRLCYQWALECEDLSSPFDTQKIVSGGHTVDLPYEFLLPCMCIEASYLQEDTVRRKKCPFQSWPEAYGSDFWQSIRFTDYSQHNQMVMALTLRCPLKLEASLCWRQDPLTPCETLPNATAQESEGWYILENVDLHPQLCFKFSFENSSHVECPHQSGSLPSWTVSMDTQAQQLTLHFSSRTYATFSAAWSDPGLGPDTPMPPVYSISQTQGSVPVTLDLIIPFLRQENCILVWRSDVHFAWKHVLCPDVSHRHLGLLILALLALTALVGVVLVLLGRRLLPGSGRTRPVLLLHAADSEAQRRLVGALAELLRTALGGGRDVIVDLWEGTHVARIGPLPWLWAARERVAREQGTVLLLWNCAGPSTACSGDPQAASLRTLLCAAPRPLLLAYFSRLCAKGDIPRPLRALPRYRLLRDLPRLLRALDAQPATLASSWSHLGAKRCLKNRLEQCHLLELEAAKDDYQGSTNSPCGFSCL

[3] = target: T3, SF-IL-17RB (murine IL-17RB with C-terminal 2xStrep-3xFlag tag) (mouse) (UniProt Q9JIP3)
T3 sequence: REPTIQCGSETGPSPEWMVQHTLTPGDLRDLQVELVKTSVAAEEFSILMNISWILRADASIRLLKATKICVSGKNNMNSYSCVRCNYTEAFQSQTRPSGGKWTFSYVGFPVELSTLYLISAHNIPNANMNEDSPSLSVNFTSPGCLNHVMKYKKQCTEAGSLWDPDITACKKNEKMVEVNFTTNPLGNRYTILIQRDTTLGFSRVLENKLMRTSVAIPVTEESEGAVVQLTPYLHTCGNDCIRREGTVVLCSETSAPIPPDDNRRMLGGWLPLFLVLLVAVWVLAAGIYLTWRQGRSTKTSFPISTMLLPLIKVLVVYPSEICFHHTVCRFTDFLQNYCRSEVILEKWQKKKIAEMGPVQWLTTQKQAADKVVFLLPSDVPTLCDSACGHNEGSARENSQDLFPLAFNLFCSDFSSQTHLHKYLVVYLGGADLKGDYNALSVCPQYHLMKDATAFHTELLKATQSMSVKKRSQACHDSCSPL

[4] = target: T4, SF-TNFR1 (murine TNF receptor 1 with C-terminal 2xStrep-3xFlag tag) (mouse) (UniProt P25118)
T4 sequence: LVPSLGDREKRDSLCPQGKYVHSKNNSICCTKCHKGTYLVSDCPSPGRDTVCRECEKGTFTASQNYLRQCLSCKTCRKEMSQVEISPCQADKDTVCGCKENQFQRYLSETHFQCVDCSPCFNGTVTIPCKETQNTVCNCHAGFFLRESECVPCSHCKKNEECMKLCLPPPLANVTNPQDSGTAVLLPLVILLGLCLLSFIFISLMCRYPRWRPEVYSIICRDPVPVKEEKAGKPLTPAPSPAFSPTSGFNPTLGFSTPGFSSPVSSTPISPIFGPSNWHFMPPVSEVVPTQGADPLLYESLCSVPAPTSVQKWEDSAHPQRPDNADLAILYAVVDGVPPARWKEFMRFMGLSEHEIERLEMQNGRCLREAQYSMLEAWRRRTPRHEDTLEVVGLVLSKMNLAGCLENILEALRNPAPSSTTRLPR

binding [1]: no binding
binding [2]: no binding
binding [3]: no binding
binding [4]: no binding
Substance: CMTM4 (endogenous, mouse ST2 cells) (from UniProt Q8CJ61 1-208)
